The values that follow come from PubChem BioAssay AID1508623 (National Center for Advancing Translational Sciences (NCATS), 2021).

Hit rate of the full screen: of about 48,000 compounds, about 450 (0.94%) were called active. Roughly 19% stayed inconclusive and do not appear here. Calls follow the shape of the dose curve; as a rule, active = well fitted inhibition curve with a large enough effect; inconclusive = small, poorly fitted or top-dose-only effect; inactive = no such curve, though single readings can be large or run the other way. This is one part of the list.

This assay is described as follows: Primary qHTS for Identification of Small Molecule Inhibitors of Huntingtin Promoter Activity. Also: nearly all actives have a fitted effect of over 50% in size. The following applies: HEK293 HTT promoter firefly luciferase reporter (activity 0% = vehicle and -100% = no light), 24 h; series mostly up to 57.5 µM; activity change, negative = inhibition: at the top concentration. In a few lines: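 Quantitative HTS used concentration series of up to 57.5 uM final on HEK293 luciferase reporter cells, 24 h at 37 degrees C. Readout was Dual-Glo firefly luminescence.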
On to `COc1cccc(-c2cn3c(n2)sc2cc(C(=O)NC4CCCCCC4)ccc23)c1`, for which the “activity change, negative = inhibition” value is inactive: -10.2%.

As to `COc1ccc(Br)cc1CNC(=O)Cn1c(=O)c2cccn2c2ccc(F)cc21`, the “activity change, negative = inhibition” value is inactive: 3.8%. Under `Cc1cc(C)c2oc(-c3cccc(NC(=O)c4ccc(Br)o4)c3)nc2c1` stands inactive: -8.08%; under `CCC(C)c1ccc(OCC(=O)Nc2cccc(-c3nc4ncccc4o3)c2)cc1` (centres undefined), inactive: 15.7%; under `CCOc1ccc(NC(=O)c2oc3ccccc3c2NC(=O)Cc2ccc(F)cc2)cc1`, inactive: -4.83%. Under `Cc1ccccc1NC(=O)CCC(=O)N1CCSc2ccccc21` stands inactive: -15.4%; under `CC(=O)N1c2ccc(S(=O)(=O)NCC3CCC(C(=O)NC(C)(C)C)CC3)cc2CC1C` (centres undefined), inactive: -3.16%. As to `O=C(NCC(c1cccs1)S(=O)(=O)c1cccs1)c1ccccc1F` (centres undefined), the “activity change, negative = inhibition” value is inactive: 2.07%. Under `Clc1ccccc1N1CCN(c2ncnc3c2c(-c2ccccc2)cn3-c2ccccc2)CC1` stands inactive: -28%; under `CCN(CC)c1nn2c(=O)c(C(=O)NCc3ccc(OC)cc3OC)cnc2s1`, inactive: -0.661%; under `COc1ccccc1CNC(=O)c1ccccc1NC(=O)c1nsc2ccccc12`, inactive: 17.4%. With `Cc1ccc(-n2nc3ccc(NC(=O)c4oc5ccccc5c4C)cc3n2)cc1`, the “activity change, negative = inhibition” value is inactive: 14.7%.

As to `CCOC(=O)c1[nH]c2ccccc2c1NC(=O)c1ccccc1OCC`, the “activity change, negative = inhibition” value is inactive: -29.7%.

`CCN(C(=O)c1noc2c1COc1ccc(C)cc1-2)c1cccc(C)c1`: the “activity change, negative = inhibition” value was inactive: -15.2%.

Take `CCOc1ccc(-c2nnc(SCC(=O)NC3CCCC3)nc2-c2ccc(OCC)c(OC)c2)cc1OC`: the “activity change, negative = inhibition” value was inactive: 4.83%. In the case of `O=C(NCCCN1CCN(c2ccccc2)CC1)c1nnc(Cc2c(F)cccc2Cl)o1`, the “activity change, negative = inhibition” value is inactive: -26.2%. The figure for `CCOc1ccc(CCNC(=O)C2CCN(c3ncnc4c3nc3n4CCCCC3)CC2)cc1` is inactive: -30.6%; for `CCOC(=O)C1CCN(C(=O)c2cc3ccc4cccnc4c3[nH]2)CC1` it is inactive: 34.7%. Under `Nc1c(C(=O)Nc2ccccc2Cl)c2ccccn2c1C(=O)c1ccc(Cl)cc1` stands inactive: -2.16%. The figure for `COc1ccc(NC(=O)CSc2nc3c([nH]c4ccccc43)c(=O)n2C)cc1` is inactive: -2.02%; for `Cc1ccc(CNC(=O)CSc2ncc(S(=O)(=O)c3ccc(Br)cc3)c(=O)[nH]2)cc1` it is inactive: 4.96%. On to `COc1ccc(NS(=O)(=O)c2ccc3c(c2)C(C(C)C)C(=O)N3)cc1` (centres undefined), for which the “activity change, negative = inhibition” value is inactive: -25.1%. The figure for `CCc1nn(CC(=O)NCCC(C)C)c(=O)c2cc3occc3n12` is inactive: -7.14%; for `CC1(C)S[C@@H]2[C@H](NC(=O)[C@H](N)c3ccccc3)C(=O)N2[C@H]1C(=O)O` it is inactive: 6.57%; for `CCn1c(C)c(C2N3CC4(C)CN2CC(CC)(C3)C4=O)c2ccccc21` (centres undefined) it is inactive: -5.04%. Under `Cc1ccc(CNC(=O)C(=O)NCC(c2cccs2)S(=O)(=O)c2ccc(C)cc2)cc1` (centres undefined) stands inactive: -46.8%; under `COC(=O)c1sccc1S(=O)(=O)N(CC(=O)NCc1ccccc1)c1ccccc1`, inactive: -12.1%.

For `Cc1c(C(=O)N2CCC(C)CC2)c(S(=O)(=O)NCc2ccccc2)c(C)n1C`, the “activity change, negative = inhibition” value was inactive: -14.5%. The figure for `Cc1nn(C(=O)c2ccccc2F)c(C)c1S(=O)(=O)N1CCOCC1` is inactive: -13%; for `COc1ccc(Nc2ncnc3c2cnn3-c2ccc(C)cc2C)cc1` it is inactive: 24.4%; for `CC(=O)c1cccc(NC(=O)Cn2c(=O)c(CNc3ccc(C)cc3)cc3cc4c(cc32)OCCO4)c1` it is inactive: -9.67%. The figure for `CCOc1ccccc1NS(=O)(=O)c1c(C)nc2sccn2c1=O` is inactive: -10.3%; for `CCn1c(=O)c2cc(C(=O)N(CCCOC(C)C)Cc3ccco3)sc2c2ccccc21` it is inactive: -31.5%. The figure for `Cc1ccc(-c2sc(C(=O)Nc3ccc(Br)cc3)cc2CC(=O)O)cc1` is inactive: -3.58%; for `Cc1cc(C)c(NC(=O)Cn2c(SCC(=O)NCc3ccccc3)nc3ccccc32)c(C)c1` it is inactive: 0%; for `COc1cccc(CNC(=O)C2CCN(S(=O)(=O)c3ccc4c(ccn4C)c3)CC2)c1` it is inactive: -24.6%. `COc1ccc(-c2cn3cccnc3n2)cc1NC(=O)c1c(F)cccc1F`: the “activity change, negative = inhibition” value is inactive: 5.17%. Under `CSc1ccc(C2c3[nH]c4ccccc4c3CCN2C(=O)CCc2ccccc2)cc1` (centres undefined) stands inactive: -26.6%. The figure for `COc1cc(Cl)c(C)cc1NC(=O)CCn1c(=O)c2cccn2c2cccnc21` is inactive: -0.0841%. The figure for `CCOC(=O)[C@H](CCc1ccccc1)N[C@@H](C)C(=O)N1CCCC1C(=O)O` (some centres undefined) is inactive: 8.42%; for `CC(C)c1nc2ccc(C(=O)NCc3ccc(N(C)C)cc3)cc2o1` it is inactive: -18%.

Consider `Cc1ccc(-n2nc3c(=O)n(CCCC(=O)NCCc4ccccc4)nc(C)c3c2C)cc1`, for which the “activity change, negative = inhibition” value was inactive: -3.44%. The figure for `Cc1cccc(CCNC(=O)CCS(=O)(=O)c2cc3c(cc2Cl)NC(=O)CO3)c1` is inactive: -15.1%. Under `COc1ccc(C)cc1Nc1nc2ccccc2c2nnc(C)n12` stands inactive: -7.52%; under `CCOc1ccc(CNC(=O)CCC(=O)N2CC3CCCN3c3ccccc32)cc1` (centres undefined), inactive: 10.8%; under `CCN1CCN(C(c2cccc(F)c2)c2c(O)cc(C)n(CCOC)c2=O)CC1` (centres undefined), inactive: -12.1%. Under `COc1ccc(Cl)cc1NC(=O)c1cc(S(=O)(=O)N2CCC(C)CC2)cn1C` stands inactive: -7.46%; under `CCc1nc2cccnc2n1-c1ccc(CC(=O)Nc2ccccc2Cl)cc1`, inactive: -30.7%; under `Cc1cccc(NC(=O)CSc2nc3c(oc4ccccc43)c(=O)n2Cc2ccco2)c1`, inactive: -14.3%.
